Source: the supplement of paper PMC4967469
pIC50: −log10 of the molar value. Lines with a small IC50 respond at low doses; a limit (>, <) means that the fit lies beyond the doses tested. AUC, from the same fit, is the share of area under the viability curve across the 256-fold dose range; values near 1 show little effect. For some assays here: An inferred top dose was calculated from the reported fits. For some assays here: Where an entry number is given, a second screen of the drug exists; the two often differ.

How the values were obtained:
Assay in all cases: Viability of human cancer cell lines after 72 h of drug (GDSC screen)
AZD6244 = compound: Cn1cnc2c(F)c(Nc3ccc(Br)cc3Cl)c(C(=O)NOCCO)cc21 [AZD6244]; conditions: top dose 4 µM; screen: GDSC drug entry 1498; top dose inferred
Description: (§1)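 Human cancer cell lines in 384-well plates, medium with 10% serum, drug for 72 h over a 256-fold dose range (nine 2-fold or five 4-fold steps up to the top dose). Adherent lines were fixed and stained with the nucleic acid dye Syto60, suspension lines read with resazurin; signal relative to control wells, capped at 0 and 100%. One two-parameter sigmoid per drug and line, fitted in a mixed model over all curves with the slope shared within a line.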

AS601245 = compound: N#CC(c1ccnc(NCCc2cccnc2)n1)c1nc2ccccc2s1 [AS601245]; conditions: top dose 8 µM; top dose inferred
Description: as §1

EX-527 = compound: NC(=O)C1CCCc2c1[nH]c1ccc(Cl)cc21 [EX-527]; conditions: top dose 20 µM
Description: as §1

YM201636 = compound: Nc1ccc(C(=O)Nc2cccc(-c3nc(N4CCOCC4)c4oc5ncccc5c4n3)c2)cn1 [YM201636]; conditions: top dose 5.12 µM; top dose inferred
Description: as §1

Cell Line	AUC (AZD6244)	pIC50 (AZD6244)	AUC (AS601245)	pIC50 (AS601245)	AUC (EX-527)	pIC50 (EX-527)	AUC (YM201636)	pIC50 (YM201636)
NCI-H28 (mesothelioma, adherent)	0.911	< 5.40	0.777	5.37	0.981	< 4.70	0.939	< 5.29
NCI-H196 (small cell lung carcinoma, adherent)	0.98	< 5.40	0.959	< 5.10	0.988	< 4.70	0.945	< 5.29
NCI-H292 (lung adenocarcinoma, adherent)	0.306	7.20	0.942	< 5.10	0.979	< 4.70	0.788	5.56
NCI-H358 (lung adenocarcinoma, adherent)	0.817	5.59	0.691	5.74	0.981	< 4.70	0.891	< 5.29
NCI-H441 (lung adenocarcinoma, adherent)	0.761	5.70	0.764	5.38	0.98	< 4.70	0.943	< 5.29
NCI-H520 (lung squamous cell carcinoma, adherent)	0.986	< 5.40	0.868	5.11	0.981	< 4.70	0.665	6.03
NCI-H522 (lung adenocarcinoma, adherent)	0.91	< 5.40	0.826	5.21	0.982	< 4.70	0.854	< 5.29
NCI-H596 (lung adenocarcinoma, adherent)	0.915	< 5.40	0.885	< 5.10	0.982	< 4.70	0.923	< 5.29
NCI-H647 (non-small cell lung carcinoma, adherent)	0.897	< 5.40	0.89	< 5.10	0.985	< 4.70	0.835	5.44
NCI-H650 (lung adenocarcinoma, adherent)	0.93	< 5.40	0.931	< 5.10	0.981	< 4.70	0.946	< 5.29
NCI-H661 (large cell lung carcinoma, adherent)	0.928	< 5.40	0.88	< 5.10	0.972	< 4.70	0.905	< 5.29
NCI-H727 (lung carcinoid, adherent)	0.555	6.41	0.588	5.99	0.976	< 4.70	0.907	< 5.29
NCI-H810 (large cell lung carcinoma, adherent)	0.985	< 5.40	0.775	5.52	0.984	< 4.70	0.901	< 5.29
NCI-H838 (lung adenocarcinoma, adherent)	0.927	< 5.40	0.882	< 5.10	0.981	< 4.70	0.904	< 5.29
NCI-H841 (small cell lung carcinoma, adherent)	0.975	< 5.40	0.915	< 5.10	0.987	< 4.70	0.902	< 5.29
NCI-H1048 (small cell lung carcinoma, adherent)	0.979	< 5.40	0.926	< 5.10	0.984	< 4.70	0.73	5.88
NCI-H1435 (lung adenocarcinoma, semi-adherent)	0.99	< 5.40	0.865	5.24	0.986	< 4.70	0.975	< 5.29
NCI-H1437 (lung adenocarcinoma, adherent)	0.59	6.35	0.82	5.32	0.986	< 4.70	0.844	5.41
NCI-H1563 (lung adenocarcinoma, adherent)	0.969	< 5.40	0.921	< 5.10	0.903	< 4.70	0.77	5.63
NCI-H1568 (lung adenocarcinoma, adherent)	0.863	< 5.40	0.872	< 5.10	0.981	< 4.70	0.97	< 5.29
NCI-H1573 (lung adenocarcinoma, adherent)	0.939	< 5.40	0.976	< 5.10	0.991	< 4.70	0.928	< 5.29
NCI-H1623 (lung adenocarcinoma, adherent)	0.806	5.59	0.832	5.17	0.985	< 4.70	0.911	< 5.29
NCI-H1651 (lung adenocarcinoma, adherent)	0.952	< 5.40	0.893	< 5.10	0.987	< 4.70	0.986	< 5.29
NCI-H1688 (small cell lung carcinoma, adherent)	0.956	< 5.40	0.87	< 5.10	0.985	< 4.70	0.613	6.17
NCI-H1693 (lung adenocarcinoma, adherent)	0.769	5.60	0.957	< 5.10	0.969	< 4.70	0.953	< 5.29
NCI-H1703 (lung adenocarcinoma, adherent)	0.975	< 5.40	0.881	< 5.10	0.982	< 4.70	0.903	< 5.29
NCI-H1755 (lung adenocarcinoma, adherent)	0.94	< 5.40	0.834	5.20	0.889	< 4.70	0.658	6.02
NCI-H1781 (lung adenocarcinoma, adherent)	0.978	< 5.40	0.866	5.15	0.989	< 4.70	0.988	< 5.29
